# The whole screen tested about 390,000 compounds, of which about 2,200 (0.56%) were called active. Inconclusive means that the source gave no clear call. Such entries were picked first, then a sample of the others. The call rests on the fitted dose curve; in most records, active means well fitted inhibition curve with a large enough effect; inconclusive means small, poorly fitted or top-dose-only effect; inactive means no such curve, though single readings can be large or run the other way. A potency beside an inconclusive call is a rough fit, not a confirmed value.
# Biological target: Chromobox protein homolog 1 (Homo sapiens) (UniProt P83916)
# Assay: HTS for Inhibitors of HP1-beta Chromodomain Interactions with Methylated Histone Tails; further: nearly all actives have a fitted effect of over 70% in size
# Details: AlphaScreen HP1-beta / biotin-H3K9me3 peptide binding; series mostly up to 114 µM; activity change, negative = inhibition: at the top concentration
# Summary of the method: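 HP1-beta protein (50 nM final) preincubated 30 min at room temperature with biotinylated H3(1-18)K9me3 peptide (50 nM) in PBS pH 7.4, 0.01% Tween-20, then compound added for 30 min. AlphaScreen streptavidin donor/nickel chelate acceptor beads (10 ug/mL final), 30 min dark, luminescence read.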
# Potency means the concentration at half of the fitted maximal effect; tags describe the fitted curve by direction and shape.
# Sequence of UniProt P83916 (P83916 whole entry, looked up): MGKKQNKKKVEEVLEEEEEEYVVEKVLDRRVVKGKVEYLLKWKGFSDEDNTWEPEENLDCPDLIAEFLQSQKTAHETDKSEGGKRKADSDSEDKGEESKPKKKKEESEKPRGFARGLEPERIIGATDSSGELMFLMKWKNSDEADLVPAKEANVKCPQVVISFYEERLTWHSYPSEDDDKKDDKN
Compound,Potency,"activity change, negative = inhibition"
O=[N+]([O-])C1=CC=C2C(=NC3(CCCCC3)N2O)C1=NC1CCCCC1,active: 12.6 µM,
O=C(Cc1ccccc1)N/N=C/c1ccc(-c2ccc([N+](=O)[O-])cc2)o1,"inconclusive: 25.1 µM [inhibitor, single point]",
Cc1ccc(C(c2sc3nc(-c4ccco4)nn3c2O)N2CCN(c3ccc(F)cc3)CC2)cc1 (stereo not given),"inconclusive: 39.8 µM [inhibitor, partial curve]",
Cc1oc(-c2cccc(Cl)c2)nc1Cn1c(SCc2ccc(F)cc2)nc2cccnc21,,inactive: 34.7%
CCN(CC)CCOc1ccccc1OC,"inconclusive: 35.5 µM [inhibitor, partial curve]",
NC(=S)NN=C1c2ccccc2-c2cc(Br)ccc21,"inconclusive: 39.8 µM [inhibitor, partial curve]",
S=C(NN=Cc1ccccn1)N(Cc1ccccn1)Cc1ccccn1,"inconclusive: 25.1 µM [inhibitor, partial curve, poor fit]",
COC(=O)c1cc(-c2ccccc2)sc1N,"inconclusive: 17.8 µM [inhibitor, full curve]",
COC(=O)c1[nH]c(C)c(/C(O)=C2\C(=O)C(=O)N(CCN(C)C)C2c2ccco2)c1C (stereo not given),,inactive: 35.4%
COc1ccc(N/N=C(/N=Nc2nc(C)cc(=O)[nH]2)c2ccccc2)cc1,active: 15.8 µM,
CC(=O)Nc1ccc(-c2csc(Nc3cc(C)ccn3)n2)cc1,"inconclusive: 79.4 µM [inhibitor, partial curve]",
C=CCn1c(O)c(C2=c3ccccc3=NC2=O)sc1=Nc1ccc(O)cc1,"inconclusive: 14.1 µM [inhibitor, full curve]",
CCOC(=O)C1CCCN(C(=O)C(CCSC)NC(=O)COc2ccccc2)C1 (stereo not given),,inactive: 4.55%
O=C(CN1CCCCCC1)NCC1CCCO1 (stereo not given),"inconclusive: 12.6 µM [inhibitor, full curve, poor fit]",
O=C1Nc2ccc(Br)cc2/C1=N/N=C/C1=C(N2CCOCC2)C(=C\c2ccccc2)/CC1,active: 5.62 µM,
CC1=NN(Cc2ccccc2)C(=O)C1C(c1ccc(Cl)cc1)C(C#N)C#N (stereo not given),"inconclusive: 50.1 µM [inhibitor, partial curve]",
C=CCNC(=O)c1cc(Cl)cc(Cl)c1,,inactive: -6.54%
O=C(C(=O)c1cc(Br)ccc1O)c1cc(Br)ccc1O,"inconclusive: 50.1 µM [inhibitor, partial curve, poor fit]",
CC(=O)Nc1ccc(S(=O)(=O)NCCc2csc3nc(-c4ccc(Cl)cc4)nn23)cc1,,inactive: 12.4%
Cn1c[n+](C)cc1/C=N/O,,inactive: 8.11%
Cc1cccc(-n2c(O)c(C=Nc3ccccc3)c3ccccc3c2=O)n1,"inconclusive: 6.31 µM [inhibitor, full curve]",
CC(=O)Nc1cc2c(cc1C(=O)c1ccccc1)OCCO2,,inactive: 21.3%
COc1cccc(NC(=O)C(NCC2CCCCC2)c2ccccc2)c1 (stereo not given),"inconclusive: 31.6 µM [inhibitor, single point]",
Cc1c(C(=O)OCc2ccccc2)[nH]c2c1C(=O)CC(c1ccco1)C2 (stereo not given),active: 70.8 µM,

Compound,Potency,"activity change, negative = inhibition"
Cc1ccc(CN2CCN(c3ccccc3Cl)CC2)o1,"inconclusive: 63.1 µM [inhibitor, single point]",
CC1=CC(C)(C)Nc2ccc(OC(=O)C(C)N3C(=O)c4ccccc4C3=O)cc21 (stereo not given),"inconclusive: 15.8 µM [inhibitor, full curve]",
CCOc1ccc(NC(=S)NN(C)C(=S)Nc2ccc(OCC)cc2)cc1,"inconclusive: 35.5 µM [inhibitor, single point]",
O=C(O)c1ccc2c3c(cccc13)C(=O)N(c1ccccc1)C2=O,"inconclusive: 79.4 µM [inhibitor, partial curve, poor fit]",
O=C(NNC(=O)c1cccc(Br)c1)Nc1ccc(Cl)cc1,"inconclusive: 4.47 µM [inhibitor, full curve, poor fit]",
CC1(C)C(C=C(Cl)Cl)C1C(=O)Nc1ccc([N+](=O)[O-])cc1 (stereo not given),,inactive: -0.561%
O=[N+]([O-])c1ccccc1S(=O)(=O)N1CCN(Cc2ccsc2)CC1,"inconclusive: 14.1 µM [inhibitor, full curve, poor fit]",
CC(C)[C@@H](NC(=O)C1CCN(C(=O)[C@@H]2CCCN2C(=O)OC(C)(C)C)CC1)C(=O)NCc1ccc(F)cc1,,inactive: 41.1%
Cn1c2ccccc2c2cc(/C=N/NC(=O)c3cc(O)cc(O)c3)ccc21,"inconclusive: 44.7 µM [inhibitor, partial curve]",
Cc1ccc2[nH]c(=O)c(CN(CCCO)C(C)c3nnnn3Cc3ccco3)cc2c1 (stereo not given),,inactive: 17.1%
O=C(/C=C/c1ccco1)NC(=S)Nc1ccccc1N1CCCC1,"inconclusive: 22.4 µM [inhibitor, full curve]",
O=C(CNc1ccc(F)cc1)N/N=C1\CCCc2ccccc21,"inconclusive: 44.7 µM [inhibitor, partial curve]",
COc1ccc(Nc2ncc3c(n2)CCN(Cc2sccc2C)C3)c(OC)c1,"inconclusive: 39.8 µM [inhibitor, partial curve]",
Cc1ccc(-n2ncc3c(NCCCN(C)C)ncnc32)cc1Cl,,inactive: 17.8%
COc1ccc(/C=C2\Sc3ccc(C(=O)N4CCN(Cc5ccccc5)CC4)cc3N(C)C2=O)cc1OC,,inactive: -28.1% [at 57 µM]
Cc1ccc(CN2CCC(CNC(=O)c3cnn(-c4ccc(C)cc4)c3C3CCN(C(=O)OC(C)(C)C)CC3)CC2)cc1,"inconclusive: 50.1 µM [inhibitor, partial curve, poor fit]",
COc1cc(C2c3c([nH]c(=O)[nH]c3=O)Nc3ccc4ccccc4c32)cc(OC)c1OC (stereo not given),active: 70.8 µM,
COc1cc(/C=N/N2CCOCC2)ccc1OCc1ccccc1,,inactive: -31.4%
CC(C)CCn1c(=O)c2ccccc2n2c(CCl)nnc12,,inactive: 22.9%
CC(=O)Nc1ccc(C(=O)NCCCSc2ccccc2)cc1,,inactive: 53.5%
COc1ccc(S(=O)(=O)N(CC(=O)Nc2ccc(S(=O)(=O)N3CCOCC3)cc2)c2ccccc2)cc1,"inconclusive: 25.1 µM [inhibitor, single point]",
Cc1ccc(S(=O)(=O)/N=C2\C=C(NS(=O)(=O)c3ccccc3)C(=O)c3ccccc32)cc1,"inconclusive: 15.8 µM [inhibitor, single point]",
COC(=O)CCC(=O)OC1(C)C(=O)C2=CN(C3CCCC3)C(c3ccc(OC)cc3)=CC2=C(Br)C1=O (stereo not given),"inconclusive: 50.1 µM [inhibitor, partial curve]",
COc1ccc(CN2CCN(C)CC2)cc1OCc1ccccc1,,inactive: 36.2%

Compound,Potency,"activity change, negative = inhibition"
O=C(NCCCN1CCOCC1)c1ccc(/C=C2\Oc3ccccc3N(Cc3ccccc3F)C2=O)cc1,,inactive: 27.2%
CN(CCOc1ccccc1)CC(=O)Nc1ccc(Cl)cc1[N+](=O)[O-],active: 25.1 µM,
C=CCNCCOc1ccc(C)cc1[N+](=O)[O-],"inconclusive: 56.2 µM [inhibitor, single point]",
COc1ccc(CCNCC(=O)Nc2ccc(C)c(Br)c2)cc1OC,"inconclusive: 28.2 µM [inhibitor, partial curve]",
O=C(CNCc1ccco1)Nc1cc(S(=O)(=O)N2CCOCC2)ccc1N1CCOCC1,"inconclusive: 56.2 µM [inhibitor, partial curve, poor fit]",
CCN(c1ccccc1)c1cc(C)nc2nc(C)nn12,,inactive: 28%
COc1ccc(NC(=O)C(=O)NCC2CCCN2S(=O)(=O)c2cc(C)ccc2C)cc1 (stereo not given),"inconclusive: 89.1 µM [inhibitor, single point]",
O=C(NC(=S)NNC(=O)c1cc2ccccc2cc1O)c1ccco1,,inactive: 1.01%
CCOC(=O)c1c(-c2ccc(C)cc2)csc1NC(=O)CCN1CCOCC1,"inconclusive: 1 µM [inhibitor, full curve]",
Cn1cccc1-c1nc2ccccc2[nH]1,"inconclusive: 89.1 µM [inhibitor, single point]",
COC(=O)c1sccc1S(=O)(=O)Nc1ccc(S(N)(=O)=O)cc1,,inactive: -14.7%
COc1cc(CN2CCN(C(c3ccccc3)c3ccccc3)CC2)cc(OC)c1OC,"inconclusive: 17.8 µM [inhibitor, full curve]",
CCOC(=O)c1c(C)[nH]c(C)c1S(=O)(=O)N1CCN(c2cc(Cl)ccc2C)CC1,"inconclusive: 70.8 µM [inhibitor, partial curve]",
O=[N+]([O-])c1ccc(C[n+]2ccc(Cc3ccccc3)cc2)cc1,,inactive: 31.5%
COc1ccc(NC(=O)C(c2cc3c(cc2[N+](=O)[O-])OCO3)N(C)Cc2ccccc2)cc1 (stereo not given),"inconclusive: 44.7 µM [inhibitor, partial curve]",
COc1ccc(Br)cc1CN(C)CC(=O)NCc1ccc(F)cc1,"inconclusive: 22.4 µM [inhibitor, full curve]",
CC(=NNS(=O)(=O)c1ccc([N+](=O)[O-])cc1)c1ccc(C)cc1,"inconclusive: 89.1 µM [inhibitor, single point]",
Cc1ccccc1N=Cc1cccc(O)c1O,"inconclusive: 39.8 µM [inhibitor, partial curve, poor fit]",
COc1ccc(NC(=O)NC(C)c2c(-n3cccc3)sc(C)c2C)cc1OC (stereo not given),"inconclusive: 31.6 µM [inhibitor, partial curve]",
COCCn1c(-c2ccc(Br)cc2)csc1=Nc1cccnc1,"inconclusive: 56.2 µM [inhibitor, partial curve, poor fit]",
CCN(C(=O)CSc1nc2cc(C(=O)O)ccc2c(=O)n1-c1ccccc1F)C1CCS(=O)(=O)C1 (stereo not given),,inactive: 49.1%
Cc1c(NC(=O)/C(C#N)=C/c2ccc(-c3ccccc3Cl)o2)c(=O)n(-c2ccccc2)n1C,"inconclusive: 44.7 µM [inhibitor, partial curve]",
